Assay results reported in US20210221863A1 (Innovent, published 2021).

What was measured:
[1] = biological target: T1, IL-2Rα (CD25) on primary human CD8^+ CD25^+ T cells (human, UniProt P01589 22-272); test: cell-based or functional assay
T1 sequence (looked up): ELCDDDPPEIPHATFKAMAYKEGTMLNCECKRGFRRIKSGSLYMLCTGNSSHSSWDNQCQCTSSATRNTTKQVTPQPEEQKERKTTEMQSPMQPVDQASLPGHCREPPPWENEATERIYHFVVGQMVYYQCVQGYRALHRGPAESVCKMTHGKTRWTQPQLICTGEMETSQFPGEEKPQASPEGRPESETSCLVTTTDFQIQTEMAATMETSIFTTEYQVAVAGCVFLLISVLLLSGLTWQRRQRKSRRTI

[2] = biological target: T2, IL-2Rβ IH-Biotin (Homo sapiens (Human), UniProt P14784 27-240, biotin on the avi tag (enzymatic labeling with His-BirA)); test: BLI (Octet Red96): biotinylated receptor on SA sensor, 100 nM Fc fusion in solution, 1:1 model
T2 construct: also called IL-2Rβ IH (in house); CD122
T2 sequence: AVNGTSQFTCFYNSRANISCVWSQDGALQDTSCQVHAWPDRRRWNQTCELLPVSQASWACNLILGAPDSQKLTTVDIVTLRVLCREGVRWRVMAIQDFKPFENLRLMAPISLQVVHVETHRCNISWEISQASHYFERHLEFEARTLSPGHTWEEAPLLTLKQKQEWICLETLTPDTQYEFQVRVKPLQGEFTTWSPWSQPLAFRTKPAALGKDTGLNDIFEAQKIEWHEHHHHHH
Protocol: A BLI affinity assay was performed according to the prior art (Estep, P, et al., High throughput solution based measurement of antibody-antigen affinity and epitope binning. MAbs, 2013.5(2): p. 270-8). […] Kinetic analysis was performed on the assay results using a 1:1 binding model.

B1: Y07 IL-2^mutant-FC fusion protein (Fc fusion)
chain: APTSSSTKKTQLQLEHLLLDLQMILNGINNYKNPDLTWMLTEEFKMPKKATELKHLQCLEEELKPLEKVLNLAQSKNFHLDTEDLIENINVMVLELKGSETTFMCEYADETATIVEFLNRWITFSQSIISTLTGGGGSGGGGS[human IgG1 Fc with changes left out here]
notes: Combines IBYDL029 mutant Y30G4 and IBYDL031 mutant Y27F6
Ratio of CD25^- EC50/CD25^+ EC50 (donor1) [1]: 2
Kd [2]: 0.16 nM

B2: Y01 IL-2^mutant-FC fusion protein (Fc fusion)
chain: APTSSSTKKTQLQLEHLLLDLQMILNGINNYKNPDLEEMLEFEFKMPKKATELKHLQCLEEELKPLEEVLNFAQSKNFELDIEDLIDNINVIVLELKGSETTFMCEYADETATIVEFLNRWITFSQSIISTLTGGGGSGGGGS[human IgG1 Fc with changes left out here]
notes: Combines IBYDL029 mutant Y30C2 and IBYDL031 mutant Y27C1
Kd [2]: 0.069 nM

B3: Y02 IL-2^mutant-FC fusion protein (Fc fusion)
chain: APTSSSTKKTQLQLEHLLLDLQMILNGINNYKNPELTDMLEFEFYMPKKATELKHLQCLEEELKPLEEVLNFAQSKNFHLDAEDLIENINVMVLELKGSETTFMCEYADETATIVEFLNRWITFSQSIISTLTGGGGSGGGGS[human IgG1 Fc with changes left out here]
notes: Combines IBYDL029 mutant Y29A4 and IBYDL031 mutant Y27C2
Kd [2]: 0.31 nM

B4: Y03 IL-2^mutant-FC fusion protein (Fc fusion)
chain: APTSSSTKKTQLQLEHLLLDLQMILNGINNYKNPELTWMLTQKFKMPKKATELKHLQCLELELKPLERVLNLAQSKNFHLDAEDLIENINVLVLELKGSETTFMCEYADETATIVEFLNRWITFSQSIISTLTGGGGSGGGGS[human IgG1 Fc with changes left out here]
notes: Combines IBYDL029 mutant Y30C1 and IBYDL031 mutant Y27C5
Kd [2]: 0.14 nM

B5: Y04 IL-2^mutant-FC fusion protein (Fc fusion)
chain: APTSSSTKKTQLQLEHLLLDLQMILNGINNYKNPDLKEMLKQDFYMPKKATELKHLQCLEEELKPLEYVLNLAQSKNFELDTEDLIENINLIVLELKGSETTFMCEYADETATIVEFLNRWITFSQSIISTLTGGGGSGGGGS[human IgG1 Fc with changes left out here]
notes: Combines IBYDL029 mutant Y27A3 and IBYDL031 mutant Y27D2
Kd [2]: 0.13 nM

B6: Y05 IL-2^mutant-FC fusion protein (Fc fusion)
chain: APTSSSTKKTQLQLEHLLLDLQMILNGINNYKNPDLEDMLTFYFKMPKKATELKHLQCLEEELKPLEEVLNFAQSKNFHLDTEDLIDNINVLVLELKGSETTFMCEYADETATIVEFLNRWITFSQSIISTLTGGGGSGGGGS[human IgG1 Fc with changes left out here]
notes: Combines IBYDL029 mutant Y29D6 and IBYDL031 mutant Y27D4
Kd [2]: 0.096 nM

B7: Y06 IL-2^mutant-FC fusion protein (Fc fusion)
chain: APTSSSTKKTQLQLEHLLLDLQMILNGINNYKNPELYWMLYEEFKMPKKATELKHLQCLEEELKPLEEVLNKAQSKNFQLDAEDLIENINVIVLELKGSETTFMCEYADETATIVEFLNRWITFSQSIISTLTGGGGSGGGGS[human IgG1 Fc with changes left out here]
notes: Combines IBYDL029 mutant Y29F4 and IBYDL031 mutant Y27E1
Kd [2]: 0.48 nM

B8: Y08 IL-2^mutant-FC fusion protein (Fc fusion)
chain: APTSSSTKKTQLQLEHLLLDLQMILNGINNYKNPELTRMLQRDFYMPKKATELKHLQCLEEELKPLEYVLNLAQSKNFDLDPRDLIDNINVLVLELKGSETTFMCEYADETATIVEFLNRWITFSQSIISTLTGGGGSGGGGS[human IgG1 Fc with changes left out here]
notes: Combines IBYDL029 mutant Y29F3 and IBYDL031 mutant Y28A2
Kd [2]: 0.41 nM

B9: Y09 IL-2^mutant-FC fusion protein (Fc fusion)
chain: APTSSSTKKTQLQLEHLLLDLQMILNGINNYKNPDLTWMLTEYFRMPKKATELKHLQCLERELKPLEYVLNLAQSKNFELNAEDLIDNINVLVLELKGSETTFMCEYADETATIVEFLNRWITFSQSIISTLTGGGGSGGGGS[human IgG1 Fc with changes left out here]
modifications: Homodimer through the Fc hinge disulfides; one chain is given.
notes: Combines IBYDL029 mutant Y30B4 and IBYDL031 mutant Y28A5
Kd [2]: 0.14 nM

B10: Y10 IL-2^mutant-FC fusion protein (Fc fusion)
chain: APTSSSTKKTQLQLEHLLLDLQMILNGINNYKNPDLTFMLEEKFKMPKKATELKHLQCLEEELKPLEYVLNLAQSKNFHLDTEDLIDNINLLVLELKGSETTFMCEYADETATIVEFLNRWITFSQSIISTLTGGGGSGGGGS[human IgG1 Fc with changes left out here]
modifications: Homodimer through the Fc hinge disulfides; one chain is given.
notes: Combines IBYDL029 mutant Y30E3 and IBYDL031 mutant Y28F1
Ratio of CD25^- EC50/CD25^+ EC50 (donor1) [1]: 2
Kd [2]: 0.11 nM

B11: Y11 IL-2^mutant-FC fusion protein (Fc fusion)
chain: APTSSSTKKTQLQLEHLLLDLQMILNGINNYKNPELKEMLEFEFYMPKKATELKHLQCLEEELKPLEEVLNFAQSKNFELDAEDLIENINVMVLELKGSETTFMCEYADETATIVEFLNRWITFSQSIISTLTGGGGSGGGGS[human IgG1 Fc with changes left out here]
modifications: Homodimer through the Fc hinge disulfides; one chain is given.
notes: Combines IBYDL029 mutant Y30E6 and IBYDL031 mutant Y28F5
Kd [2]: 0.34 nM
